The list shows a part of the results. At the low end of the ranking, values are background and their order means little.

We go through 137 sequences from publication PMC5515408.

In this assay the test system is MYC (p64) + MAX (p21), in MYC:MAX. Description: protein-binding microarray (anti-MAX antibody). The following applies: PBM: 15 mM Tris-HCl pH 7.5, 100 mM KCl, 0.075% NP40, 7.5 mM beta-mercaptoethanol, 375 ng/ul BSA, 8 ng/ul poly(dA-dT):(dA-dT), 550 ng complex, 60 min, room …; high values mean tight binding; double strand, one strand shown; sequences stand for … in CCGGC…TTAATAGCTAAGATTACTATATCGACG
Consider TGACAGTACGTA, for which the binding signal (log2 normalized fluorescence) came to 0.0905.

On to TGACTCGGTGTA, for which the binding signal (log2 normalized fluorescence) was 0.179.

Regarding TGAATTTTAGTA, the binding signal (log2 normalized fluorescence) is -0.196.

In the case of TGAGCAAACGTA, the binding signal (log2 normalized fluorescence) is 0.0471.

For the sequence TGATTTGAAGTA, the binding signal (log2 normalized fluorescence) is -0.247.

On to TGATAAGAAGTA, for which the binding signal (log2 normalized fluorescence) was -0.136.

With TGATCTCATGTA, the binding signal (log2 normalized fluorescence) stood at 0.213.

As to TGATGTTGCGTA, the binding signal (log2 normalized fluorescence) was found to be 0.214.

As to TGACCGATGGTA, the binding signal (log2 normalized fluorescence) came out at 0.22.

For the sequence TGAGATCAAGTA, the binding signal (log2 normalized fluorescence) was -0.0172.

In the case of TGAACATGGGTA, the binding signal (log2 normalized fluorescence) was 0.288.

For TGAGGACAGGTA, the binding signal (log2 normalized fluorescence) stood at 0.0882.

As to TGAAGGATGGTA, the binding signal (log2 normalized fluorescence) was 0.0538.

As to TGATAGCCTGTA, the binding signal (log2 normalized fluorescence) is 0.12.

On to TGACAGGTGGTT, for which the binding signal (log2 normalized fluorescence) was found to be 0.522.

On to TGATATCAAGTA, for which the binding signal (log2 normalized fluorescence) came out at 0.0285.

AGACACTTTGTA: the binding signal (log2 normalized fluorescence) came out at 0.3.

As for TGACCCATGGTT, the binding signal (log2 normalized fluorescence) amounted to 0.348.

Turning to TGAAGCGCAGTA, the binding signal (log2 normalized fluorescence) is 0.0487.

For TGATCTGACGTA, the binding signal (log2 normalized fluorescence) is -0.0108.

Regarding TGACTAGAGGTA, the binding signal (log2 normalized fluorescence) was -0.127.

As to TGAGTTTCAGTA, the binding signal (log2 normalized fluorescence) is -0.187.

Take TGATTGAAGGTA: the binding signal (log2 normalized fluorescence) is -0.0128.

For the sequence TGTCGCGTGGTA, the binding signal (log2 normalized fluorescence) worked out at 0.536.

As for TGACGGAAGGTA, the binding signal (log2 normalized fluorescence) is -0.0359.

Take TGAGCAGTTGTA: the binding signal (log2 normalized fluorescence) turned out to be 0.0736.

Take TGAAATACCGTA: the binding signal (log2 normalized fluorescence) stood at 0.102.

As to CGTTAACACTTT, the binding signal (log2 normalized fluorescence) is 0.109.

For TGAGGTTGCGTA, the binding signal (log2 normalized fluorescence) was -0.062.

Turning to TGACACGTGTTT, the binding signal (log2 normalized fluorescence) turned out to be 0.847.

Take TGACGAAACGTA: the binding signal (log2 normalized fluorescence) came to 0.121.

Take TGATTAGTCGTA: the binding signal (log2 normalized fluorescence) was -0.281.

With TGAATGTGTGTA, the binding signal (log2 normalized fluorescence) is 0.421.

On to TGAGCACTGGTA, for which the binding signal (log2 normalized fluorescence) stood at 0.187.

Consider TGAATAGAAGTA, for which the binding signal (log2 normalized fluorescence) was -0.13.

Regarding CTCATCGCGCCT, the binding signal (log2 normalized fluorescence) stood at 0.316.

TGACGTGTAGTA: the binding signal (log2 normalized fluorescence) amounted to 0.403.

In the case of TGACTCGTGCTA, the binding signal (log2 normalized fluorescence) turned out to be 0.482.

With TGACTTGCCGTA, the binding signal (log2 normalized fluorescence) is 0.106.

As to TGATGGTCCGTA, the binding signal (log2 normalized fluorescence) is 0.278.

For TGAGCTTCTGTA, the binding signal (log2 normalized fluorescence) is -0.176.

On to TGACGCGTGCCA, for which the binding signal (log2 normalized fluorescence) came to 0.319.

Take TGAGTAACCGTA: the binding signal (log2 normalized fluorescence) was -0.107.

Regarding TGATGAATCGTA, the binding signal (log2 normalized fluorescence) was -0.0912.

As for TCATAAGTGGTA, the binding signal (log2 normalized fluorescence) came out at 0.113.

For TGATGCTGGGTA, the binding signal (log2 normalized fluorescence) is -0.102.

For TGAACGATTGTA, the binding signal (log2 normalized fluorescence) came out at 0.118.

Consider TGATCTGATGTA, for which the binding signal (log2 normalized fluorescence) stood at 0.061.

In the case of TGACGGTAGGTA, the binding signal (log2 normalized fluorescence) is -0.0969.

In the case of TGAGGGAACGTA, the binding signal (log2 normalized fluorescence) is 0.0294.

With TGACTGCGGGTA, the binding signal (log2 normalized fluorescence) is 0.112.

As to TGAAAGTACGTA, the binding signal (log2 normalized fluorescence) worked out at 0.0813.

On to TGAGCTTGTGTA, for which the binding signal (log2 normalized fluorescence) came out at 0.187.

TGTGTCGTGGTA: the binding signal (log2 normalized fluorescence) amounted to 0.298.

TGAACCAGTGTA: the binding signal (log2 normalized fluorescence) stood at 0.036.

Regarding TGAAACCCAGTA, the binding signal (log2 normalized fluorescence) is -0.0164.

Regarding TGAACCGAGGTA, the binding signal (log2 normalized fluorescence) was 0.0574.

TGAAACAAGGTA: the binding signal (log2 normalized fluorescence) was 0.229.

GGGCACGTGGTA: the binding signal (log2 normalized fluorescence) was 0.738.

For the sequence TGAATTACTGTA, the binding signal (log2 normalized fluorescence) was 0.0701.

With TCGTCCCCTGAC, the binding signal (log2 normalized fluorescence) was 0.0104.

With TGACACCTCGTA, the binding signal (log2 normalized fluorescence) amounted to 0.182.

Take ACGCACGTGGTA: the binding signal (log2 normalized fluorescence) was 0.838.

TGAGCGTGTGTA: the binding signal (log2 normalized fluorescence) is 0.287.

On to TGACATGAGGTA, for which the binding signal (log2 normalized fluorescence) turned out to be 0.569.

As to TTACGCGTGGTA, the binding signal (log2 normalized fluorescence) stood at 0.548.

TGACAAGTGGTA: the binding signal (log2 normalized fluorescence) came to 0.254.

In the case of TGATTCAGTGTA, the binding signal (log2 normalized fluorescence) is -0.141.

For TGAGTTGATGTA, the binding signal (log2 normalized fluorescence) was -0.0944.

As to TGAGGGCGGGTA, the binding signal (log2 normalized fluorescence) came to 0.31.

In the case of TGATAGGGGGTA, the binding signal (log2 normalized fluorescence) is 0.592.

For the sequence TGATCTTATGTA, the binding signal (log2 normalized fluorescence) came to 0.0708.

As for TGACTCACAGTA, the binding signal (log2 normalized fluorescence) turned out to be 0.217.

Take TGAGCGAGTGTA: the binding signal (log2 normalized fluorescence) was determined as 0.103.

TGACCGCTCGTA: the binding signal (log2 normalized fluorescence) stood at 0.0552.

Consider TGACGATGGGTA, for which the binding signal (log2 normalized fluorescence) was determined as 0.154.

Take TGAGGCGTGGCA: the binding signal (log2 normalized fluorescence) was found to be 0.399.

In the case of TGACACAAAGTA, the binding signal (log2 normalized fluorescence) amounted to 0.134.

As to TGACACGTGATA, the binding signal (log2 normalized fluorescence) was 0.522.

Consider TGACTCGAGGTA, for which the binding signal (log2 normalized fluorescence) came out at 0.385.

For TGACACTTAGTA, the binding signal (log2 normalized fluorescence) was 0.231.

As to TGAGAGCATGTA, the binding signal (log2 normalized fluorescence) amounted to 0.427.

Regarding TGAAAAGTGGGA, the binding signal (log2 normalized fluorescence) is -0.077.

TGATGTACGGTA: the binding signal (log2 normalized fluorescence) stood at 0.183.

In the case of TGCCACTTGGTT, the binding signal (log2 normalized fluorescence) is 0.173.

Consider TGTCACCGGGTA, for which the binding signal (log2 normalized fluorescence) was determined as 0.0662.

As to TGAACTAGAGTA, the binding signal (log2 normalized fluorescence) is -0.117.

As for TGAAATGAGGTA, the binding signal (log2 normalized fluorescence) turned out to be 0.424.

As for AGGTTTCACCGG, the binding signal (log2 normalized fluorescence) came to 0.273.

Take TGAACGCATGTA: the binding signal (log2 normalized fluorescence) amounted to 0.747.

In the case of TGAAACGCTGTA, the binding signal (log2 normalized fluorescence) is 0.131.

For TGAGTGTTCGTA, the binding signal (log2 normalized fluorescence) worked out at 0.0832.

Take TGAGATGTTGTA: the binding signal (log2 normalized fluorescence) was -0.226.

With TGACCTATTGTA, the binding signal (log2 normalized fluorescence) is -0.00366.

Regarding TGAAAGGACGTA, the binding signal (log2 normalized fluorescence) is 0.041.

Turning to TGAAGTCACGTA, the binding signal (log2 normalized fluorescence) is 0.345.

Regarding TGACGCTCTGTA, the binding signal (log2 normalized fluorescence) is 0.0856.

Take TGAGTTACTGTA: the binding signal (log2 normalized fluorescence) is -0.0441.

Regarding TGACAGCTAGTA, the binding signal (log2 normalized fluorescence) stood at 0.0975.

In the case of TGATTTAACGTA, the binding signal (log2 normalized fluorescence) is -0.0239.

As to TGTGACGTGGTA, the binding signal (log2 normalized fluorescence) was found to be 0.414.

TGAGGCTCGGTA: the binding signal (log2 normalized fluorescence) was 0.0574.

As to TGAGACCCCGTA, the binding signal (log2 normalized fluorescence) is 0.0159.

In the case of TGAGCTCTGGTA, the binding signal (log2 normalized fluorescence) is -0.127.

Take AGCGGGTCGCAC: the binding signal (log2 normalized fluorescence) was -0.00303.

For TGAGGCAGTGTA, the binding signal (log2 normalized fluorescence) was -0.129.

With TGACGTAATGTA, the binding signal (log2 normalized fluorescence) was found to be 0.0654.

As to TGACGACGGGTA, the binding signal (log2 normalized fluorescence) turned out to be 0.00772.

As for TGACGAAGAATC, the binding signal (log2 normalized fluorescence) was -0.158.

As to AGACACGTGATC, the binding signal (log2 normalized fluorescence) amounted to 0.751.

On to TGACATGGAGTA, for which the binding signal (log2 normalized fluorescence) worked out at 0.301.

AGACACGTGGTC: the binding signal (log2 normalized fluorescence) was 0.904.

For the sequence TGCCACGACGTA, the binding signal (log2 normalized fluorescence) is 0.371.

For the sequence TGGCCCGTGGGA, the binding signal (log2 normalized fluorescence) worked out at 0.168.

Regarding TGAGCACAAGTA, the binding signal (log2 normalized fluorescence) was determined as 0.273.

With TGACATATCGTA, the binding signal (log2 normalized fluorescence) is 0.246.

Take TGATCTATTGTA: the binding signal (log2 normalized fluorescence) was -0.0842.

Regarding TGATAAGACGTA, the binding signal (log2 normalized fluorescence) worked out at 0.0527.

For the sequence TGACACGCGATA, the binding signal (log2 normalized fluorescence) was 0.642.

Turning to TGACGCTTTGTA, the binding signal (log2 normalized fluorescence) amounted to 0.148.

On to TGAATATCGGTA, for which the binding signal (log2 normalized fluorescence) is -0.132.

As for TGAGGCGGTGTA, the binding signal (log2 normalized fluorescence) was -0.0108.

Turning to TGAGGCGGCGTA, the binding signal (log2 normalized fluorescence) was -0.318.

On to TGATCGCATGTA, for which the binding signal (log2 normalized fluorescence) was found to be 0.469.

With TGATTCAACGTA, the binding signal (log2 normalized fluorescence) amounted to 0.0711.

For TGACTCCAAGTA, the binding signal (log2 normalized fluorescence) worked out at 0.0835.

AGACTCGTTGTA: the binding signal (log2 normalized fluorescence) was found to be 0.374.

Turning to TCACCCATGGTA, the binding signal (log2 normalized fluorescence) was 0.452.

With TGAAGTGTAGTA, the binding signal (log2 normalized fluorescence) was -0.0212.

As for TGAGTAGCAGTA, the binding signal (log2 normalized fluorescence) was -0.19.

With TGAACGTGAGTA, the binding signal (log2 normalized fluorescence) turned out to be 0.437.

For TGACTTACCGTA, the binding signal (log2 normalized fluorescence) came out at 0.0191.

With TGACCCTGAGTA, the binding signal (log2 normalized fluorescence) came to 0.227.

In the case of TGACATGGCGTA, the binding signal (log2 normalized fluorescence) stood at 0.389.

On to TGAAAGATGGTA, for which the binding signal (log2 normalized fluorescence) is -0.0345.

With TGATCCAGGGTA, the binding signal (log2 normalized fluorescence) was -0.107.

For TGAGACTCTGTA, the binding signal (log2 normalized fluorescence) is -0.0312.
